# Inconclusive results, whose numbers are uncertain, are shown with a selection of clear calls. Where a call stands in place of a potency, no number is given. For some of these results: Potencies beside an inconclusive call are fits to weak or partial responses and may not hold up. Activity calls are given as the source filed them. Unless noted, calls follow the shape of the dose curve; as a rule, active = well fitted curve in the direction sought with a large enough effect in the repeat runs; inconclusive = weak or mixed curves; inactive = no such curve, though single readings can be large; an effect the other way counts as inactive or inconclusive.
# Tests used:
# [1] = qHTS assay for small molecule agonists of the p53 signaling pathway (AID 651631; calls by dose curve; also: nearly all actives have a fitted effect of over 15% in size); conditions: HCT-116 p53RE-bla reporter, beta-lactamase FRET ratio, 16 h; activation: at 73.3 µM (top of the series) unless noted
# Summary of the method: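 Beta-lactamase reporter activity under p53 response elements was quantified in HCT-116 cells by FRET fluorescence, following 16 h incubation with test compounds at 37 °C and 2 h substrate development at room temperature.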
# [2] = qHTS assay for small molecule disruptors of the mitochondrial membrane potential (AID 720635); conditions: HepG2 mitochondrial membrane potential, Mito-MPS dye ratio; ratio activity, negative = MMP loss: at 83.2 µM (top of the series) unless noted; also: potency is read from the fitted curve at half-maximal effect
# Summary of the method: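 Mitochondrial membrane potential tracked with Mito-MPS dye, red aggregates (ex 540/em 590 nm) against green monomers (ex 490/em 535 nm). Compound treatment 1 hr at 37C, dye 30 min in HepG2.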
# [3] = qHTS assay to identify small molecule antagonists of the thyroid receptor (TR) signaling pathway - cell viability counter screen (AID 743064); conditions: GH3.TRE-Luc viability, CellTiter-Fluor, 24 h; activity change, negative = cytotoxic: at 70.3 µM (top of the series) unless noted; also: nearly all actives have a fitted effect of over 50% in size; also: potency is read from the fitted curve at half-maximal effect
# Summary of the method: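 CellTiter-Fluor readout, 30 min at 37 °C/5% CO2, following 23.5 h incubation of GH3.TRE-Luc cells with test compound and 1 nM T3 (final).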
# [4] = molecular target: Peroxisome proliferator-activated receptor gamma (Homo sapiens) (UniProt P37231); experiment: qHTS assay to identify small molecule antagonists of the peroxisome proliferator-activated receptor gamma (PPARg) signaling pathway (AID 743191; calls by dose curve; also: nearly all actives have a fitted effect of over 30% in size; also: potency is read from the fitted curve at half-maximal effect); conditions: HEK293H PPARg-UAS-bla, beta-lactamase ratio, antagonist, 17 h; ratio activity, negative = inhibition: at 62.6 µM (top of the series) unless noted
# Summary of the method: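 Beta-lactamase reporter under UAS control in HEK293H PPARg-bla cells; compound treatment 17 h at 37C. Read-out: fluorescence intensity after 1 h room-temperature incubation with LiveBLAzer B/G FRET substrate.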
# [5] = qHTS assay for small molecule agonists of the antioxidant response element (ARE) signaling pathway (AID 743202; active = well fitted activation curve with a large enough effect in the signal ratio in the repeat runs, not every such curve was filed as active; inconclusive = weak or mixed curves, or effect the other way; inactive = no such curve, though single readings can be large or run the other way; the % refers to the signal ratio); conditions: HepG2 ARE-bla reporter, beta-lactamase FRET, 16 h; activation: at 73.3 µM (top of the series) unless noted
# Summary of the method: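 An ARE-responsive beta-lactamase gene stably integrated in HepG2 cells serves as reporter. After 5 h plating and 16 h compound incubation at 37 C, fluorescence of the B/G FRET substrate was measured.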
# [6] = qHTS assay to identify small molecule agonists of the retinoic acid receptor (RAR) signaling pathway (AID 1159553); conditions: C3RL4 RARE luciferase reporter, agonist, 6 h; activation: at 73.3 µM (top of the series) unless noted; also: potency is read from the fitted curve at half-maximal effect
# Summary of the method: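 Cell line C3RL4, RARE luciferase reporter. Treatment: compounds in DMSO, 6 hr, 37 C, 5% CO2, after overnight plating. Detection: luminescence, 30 min RT after reagent.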
# [7] = molecular target: Cytochrome P450 2C19 (Homo sapiens) (UniProt P33261); experiment: Cytochrome P450 Family 2 Subfamily C Member 19 (CYP2C19) small molecule antagonists: luciferase reporter qHTS assay (AID 1671197); also: nearly all actives have a fitted effect of over 65% in size; also: potency is read from the fitted curve at half-maximal effect
# Summary of the method: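 CYP2C19 P450-Glo, 1536-well qHTS. Cpd + enzyme/proluciferin substrate 10 min RT; + NADPH regen, 37C 1 h; stop with luciferin detection reagent, 20 min RT, luminescence (RLU). Pos ctrl ketoconazole.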
# [8] = molecular target: Estrogen receptor beta (Homo sapiens) (UniProt Q92731); experiment: qHTS assay to identify small molecule antagonists of the estrogen receptor beta (ER-beta) signaling pathway (AID 1259378; active = well fitted inhibition curve with a large enough effect in the signal ratio in the repeat runs, not every such curve was filed as active; inconclusive = weak or mixed curves, or effect the other way; inactive = no such curve, though single readings can be large or run the other way; the % refers to the signal ratio); conditions: ER-beta-UAS-bla HEK293T, beta-lactamase FRET ratio, 16 h; activity, negative = inhibition: at 92.4 µM (top of the series) unless noted
# Summary of the method: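 Antagonist mode: compounds added to beta-lactamase reporter HEK293T ER-beta-UAS cells stimulated with E2 (1nM final), 16 hr at 37C. LiveBLAzer B/G FRET substrate, 2 hours room temperature, fluorescence read-out.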
# [9] = qHTS assay to identify small molecule agonists of the progesterone receptor (PR) signaling pathway - cell viability counter screen (AID 1346799; calls by dose curve; also: nearly all actives have a fitted effect of over 45% in size)
# Summary of the method: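 Multiplexed viability read: CellTiter-Glo luminescence, 30 min RT, following LiveBLAzer FRET measurement on PR-UAS-bla HEK293T cells exposed to compounds 16 hr.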
# [10] = molecular target: Cytochrome P450 2C9 (Homo sapiens) (UniProt P11712); experiment: Cytochrome P450 Family 2 Subfamily C Member 9 (CYP2C9) small molecule antagonists: luciferase reporter qHTS assay (AID 1671198); also: nearly all actives have a fitted effect of over 50% in size; also: potency is read from the fitted curve at half-maximal effect
# Summary of the method: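 Enzyme-substrate mix preincubated with compound 10 min at room temperature; reaction started with NADPH regeneration solution, 1 h 37C. Luminescent luciferin product read after 20 min detection reagent.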
# [11] = molecular target: Glucocorticoid receptor (Homo sapiens) (UniProt P04150); experiment: qHTS assay to identify small molecule antagonists of the glucocorticoid receptor (GR) signaling pathway (AID 720692; active = well fitted inhibition curve with a large enough effect in the signal ratio in the repeat runs, not every such curve was filed as active; inconclusive = weak or mixed curves, or effect the other way; inactive = no such curve, though single readings can be large or run the other way; the % refers to the signal ratio); conditions: GR-bla HeLa, beta-lactamase FRET ratio, dexamethasone-stimulated, 18 h; activity change, negative = inhibition: at 58.5 µM (top of the series) unless noted
# Summary of the method: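 Fluorescence from cleaved LiveBLAzer B/G FRET substrate reports GRE-driven beta-lactamase in HeLa cells; compounds are tested against 5 nM dexamethasone (final) over 18 h at 37 C, substrate incubation 2 h at room temperature.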
# [12] = qHTS assay to identify small molecule antagonists of the sonic hedgehog signaling (Shh) pathway (AID 1259369; calls by dose curve; also: nearly all actives have a fitted effect of over 45% in size; also: potency is read from the fitted curve at half-maximal effect)
# Summary of the method: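 Screening used 3T3Gli1-Luc cells at 2,000 per well, compounds delivered in DMSO, and conditioned medium as agonist stimulus; plates incubated 24hr at 37 C and 5% CO2 before a 30min luciferase step.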
# [13] = molecular target: Progesterone receptor (Homo sapiens) (UniProt P06401); experiment: qHTS assay to identify small molecule antagonists of the progesterone receptor (PR) signaling pathway (AID 1346795; active = well fitted inhibition curve with a large enough effect in the signal ratio in the repeat runs, not every such curve was filed as active; inconclusive = weak or mixed curves; the % refers to the signal ratio); conditions: PR-UAS-bla HEK293T, beta-lactamase FRET ratio, 16 h; activity change, negative = inhibition: at 92.4 µM (top of the series) unless noted
# Summary of the method: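 Stimulus R5020 at 1 nM final; cells HEK293T PR-UAS-bla; medium with 2% charcoal-stripped FBS; compound exposure 16 hr at 37C, 5% CO2; detection by FRET beta-lactamase substrate, 2 hr, room temperature.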
# [14] = qHTS assay for identifying genotoxic compounds that show differential cytotoxicity against isogenic chicken DT40 cell lines with known DNA damage response pathways - wild type cell line (AID 743012); conditions: DT40 wild type chicken cells viability, CellTiter-Glo, 40 h; activity change, negative = cytotoxicity: at 68.4 µM (top of the series) unless noted; also: potency is read from the fitted curve at half-maximal effect; nearly all actives have a fitted effect of over 60% in size
# Summary of the method: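 Quantitative HTS on parental DT40 cells: 40 h compound treatment at 37 C/5% CO2, with viability then determined by CellTiter-Glo luminescence. Values serve as the DNA repair-proficient reference for differential cytotoxicity.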
# [15] = molecular target: Cytochrome P450 2D6 (Homo sapiens) (UniProt P10635); experiment: Cytochrome P450 Family 2 Subfamily D Member 6 (CYP2D6) small molecule antagonists: luciferase reporter qHTS assay (AID 1671196); also: potency is read from the fitted curve at half-maximal effect; nearly all actives have a fitted effect of over 50% in size
# Summary of the method: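 Inhibition of CYP2D6 was gauged by loss of luminescence, since light produced tracks the luciferin generated from a proluciferin substrate. A 10 min room-temperature preincubation preceded 1 h NADPH-supported turnover.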
# [16] = molecular target: Cytochrome P450 1A2 (Homo sapiens) (UniProt P05177); experiment: Cytochrome P450 Family 1 Subfamily A Member 2 (CYP1A2) small molecule antagonists: luciferase reporter qHTS assay (AID 1671199); also: nearly all actives have a fitted effect of over 50% in size; also: potency is read from the fitted curve at half-maximal effect
# Summary of the method: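 Signal from luciferin formed by CYP1A2 from a proluciferin substrate is read as luminescence, expressed in relative luminescence units. Compounds sit with enzyme 10 min, NADPH-driven reaction runs 1 h, all at room temperature.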
# [17] = molecular target: Vitamin D3 receptor (Homo sapiens) (UniProt P11473); experiment: qHTS assay to identify small molecule antagonists of the vitamin D receptor (VDR) signaling pathway (AID 743223; active = well fitted inhibition curve with a large enough effect in the signal ratio in the repeat runs, not every such curve was filed as active; inconclusive = weak or mixed curves, or effect the other way; inactive = no such curve, though single readings can be large or run the other way; the % refers to the signal ratio); conditions: VDR-UAS-bla HEK293T, beta-lactamase FRET ratio, 16 h; activity change, negative = inhibition: at 61 µM (top of the series) unless noted
# Summary of the method: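 Inhibition of agonist-driven VDR signalling is scored in VDR-bla cells: 3 nM final 1alpha,25-dihydroxyvitamin D3 plus compound, 16 h at 37C, then beta-lactamase detection by FRET substrate fluorescence after 2 h.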
# Tags tell the direction and shape of the fitted curve or compound fluorescence and quenching.
# Sequence of UniProt P05177 (P05177 whole entry, looked up): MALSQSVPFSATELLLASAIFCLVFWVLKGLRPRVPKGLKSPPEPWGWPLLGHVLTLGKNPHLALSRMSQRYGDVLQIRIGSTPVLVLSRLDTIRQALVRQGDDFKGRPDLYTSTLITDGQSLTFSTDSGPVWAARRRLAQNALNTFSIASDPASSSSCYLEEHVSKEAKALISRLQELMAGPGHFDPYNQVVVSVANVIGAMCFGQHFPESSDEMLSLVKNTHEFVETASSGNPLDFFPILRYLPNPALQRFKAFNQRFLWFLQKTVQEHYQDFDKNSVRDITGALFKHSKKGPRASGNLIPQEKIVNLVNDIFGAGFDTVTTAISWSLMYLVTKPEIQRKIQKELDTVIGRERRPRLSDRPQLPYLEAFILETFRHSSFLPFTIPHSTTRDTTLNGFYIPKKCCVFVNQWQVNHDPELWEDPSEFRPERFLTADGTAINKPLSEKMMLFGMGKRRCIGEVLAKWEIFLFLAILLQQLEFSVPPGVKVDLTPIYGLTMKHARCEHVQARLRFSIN
# Sequence of UniProt P33261 (P33261 whole entry, looked up): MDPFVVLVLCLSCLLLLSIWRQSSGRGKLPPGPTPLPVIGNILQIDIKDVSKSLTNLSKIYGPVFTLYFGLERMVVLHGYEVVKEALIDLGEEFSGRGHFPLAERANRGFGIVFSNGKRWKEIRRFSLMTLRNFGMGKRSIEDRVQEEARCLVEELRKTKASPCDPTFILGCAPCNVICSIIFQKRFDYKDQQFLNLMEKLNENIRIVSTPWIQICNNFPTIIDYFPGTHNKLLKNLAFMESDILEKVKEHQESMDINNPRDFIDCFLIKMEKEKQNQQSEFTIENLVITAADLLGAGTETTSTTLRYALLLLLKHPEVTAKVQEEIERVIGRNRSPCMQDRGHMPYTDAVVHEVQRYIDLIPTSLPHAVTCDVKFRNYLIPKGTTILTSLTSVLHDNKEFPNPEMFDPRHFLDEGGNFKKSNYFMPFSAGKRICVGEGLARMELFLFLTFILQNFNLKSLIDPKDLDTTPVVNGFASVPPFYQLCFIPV
# Sequence of UniProt P37231 (P37231 whole entry, looked up): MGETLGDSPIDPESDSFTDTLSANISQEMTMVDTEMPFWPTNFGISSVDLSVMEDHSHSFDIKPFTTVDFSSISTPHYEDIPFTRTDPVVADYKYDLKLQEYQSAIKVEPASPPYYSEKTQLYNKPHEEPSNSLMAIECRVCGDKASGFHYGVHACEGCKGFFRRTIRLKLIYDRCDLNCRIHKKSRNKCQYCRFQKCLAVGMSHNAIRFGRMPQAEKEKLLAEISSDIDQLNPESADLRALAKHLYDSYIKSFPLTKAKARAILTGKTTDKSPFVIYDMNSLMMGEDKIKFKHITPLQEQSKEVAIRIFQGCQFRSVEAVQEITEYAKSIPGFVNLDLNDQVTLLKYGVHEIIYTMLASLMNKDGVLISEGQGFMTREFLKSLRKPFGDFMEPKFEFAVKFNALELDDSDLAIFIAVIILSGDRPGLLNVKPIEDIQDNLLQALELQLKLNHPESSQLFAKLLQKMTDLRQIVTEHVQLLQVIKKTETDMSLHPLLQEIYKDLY
# Sequence of UniProt P11712 (P11712 whole entry, looked up): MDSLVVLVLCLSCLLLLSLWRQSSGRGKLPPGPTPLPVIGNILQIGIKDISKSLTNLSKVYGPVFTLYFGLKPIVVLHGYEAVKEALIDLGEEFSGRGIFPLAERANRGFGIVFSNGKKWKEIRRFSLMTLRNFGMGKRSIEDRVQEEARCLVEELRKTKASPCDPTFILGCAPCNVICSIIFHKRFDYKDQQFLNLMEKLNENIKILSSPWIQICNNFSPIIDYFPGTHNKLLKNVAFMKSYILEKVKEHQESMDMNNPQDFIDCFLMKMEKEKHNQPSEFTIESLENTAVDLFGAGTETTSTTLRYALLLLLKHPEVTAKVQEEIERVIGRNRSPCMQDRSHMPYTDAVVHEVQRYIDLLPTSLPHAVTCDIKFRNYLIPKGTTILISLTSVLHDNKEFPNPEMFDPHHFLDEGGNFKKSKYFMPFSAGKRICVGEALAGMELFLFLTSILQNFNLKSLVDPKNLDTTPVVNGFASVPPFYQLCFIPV
# Sequence of UniProt P04150 (P04150 whole entry, looked up): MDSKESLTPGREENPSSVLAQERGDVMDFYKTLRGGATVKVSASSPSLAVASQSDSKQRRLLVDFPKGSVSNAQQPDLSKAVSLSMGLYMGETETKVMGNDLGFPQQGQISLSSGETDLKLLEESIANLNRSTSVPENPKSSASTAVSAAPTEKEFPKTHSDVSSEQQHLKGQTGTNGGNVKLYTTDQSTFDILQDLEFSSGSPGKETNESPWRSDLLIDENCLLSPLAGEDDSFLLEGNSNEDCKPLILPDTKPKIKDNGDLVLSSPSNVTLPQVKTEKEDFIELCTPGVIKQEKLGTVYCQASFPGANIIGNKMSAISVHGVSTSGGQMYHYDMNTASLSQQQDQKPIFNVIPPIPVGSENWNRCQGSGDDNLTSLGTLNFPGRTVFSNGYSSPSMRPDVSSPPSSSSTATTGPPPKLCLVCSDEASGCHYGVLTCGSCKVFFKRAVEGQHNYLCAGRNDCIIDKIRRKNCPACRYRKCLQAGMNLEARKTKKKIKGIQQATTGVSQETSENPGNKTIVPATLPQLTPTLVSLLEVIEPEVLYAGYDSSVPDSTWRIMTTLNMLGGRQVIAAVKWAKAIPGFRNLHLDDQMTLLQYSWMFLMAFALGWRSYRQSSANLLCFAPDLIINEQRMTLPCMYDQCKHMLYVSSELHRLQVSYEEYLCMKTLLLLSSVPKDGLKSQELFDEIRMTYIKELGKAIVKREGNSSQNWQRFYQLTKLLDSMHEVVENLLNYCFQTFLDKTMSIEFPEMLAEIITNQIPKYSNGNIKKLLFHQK
# Sequence of UniProt Q92731 (Q92731 whole entry, looked up): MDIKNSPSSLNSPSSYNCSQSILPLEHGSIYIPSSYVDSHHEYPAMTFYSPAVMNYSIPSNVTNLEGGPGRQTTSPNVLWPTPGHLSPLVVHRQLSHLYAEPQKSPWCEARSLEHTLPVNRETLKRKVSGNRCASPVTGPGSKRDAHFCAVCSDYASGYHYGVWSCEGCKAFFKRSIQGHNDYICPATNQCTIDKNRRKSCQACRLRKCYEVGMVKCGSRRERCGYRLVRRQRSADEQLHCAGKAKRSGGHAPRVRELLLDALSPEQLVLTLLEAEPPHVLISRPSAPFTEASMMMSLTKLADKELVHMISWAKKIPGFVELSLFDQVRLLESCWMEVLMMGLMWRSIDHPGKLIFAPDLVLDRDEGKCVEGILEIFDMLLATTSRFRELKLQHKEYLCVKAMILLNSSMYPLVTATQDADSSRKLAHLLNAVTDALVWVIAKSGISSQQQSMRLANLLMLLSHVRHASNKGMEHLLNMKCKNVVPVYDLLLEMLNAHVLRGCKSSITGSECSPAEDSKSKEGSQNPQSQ
# Sequence of UniProt P11473 (P11473 whole entry, looked up): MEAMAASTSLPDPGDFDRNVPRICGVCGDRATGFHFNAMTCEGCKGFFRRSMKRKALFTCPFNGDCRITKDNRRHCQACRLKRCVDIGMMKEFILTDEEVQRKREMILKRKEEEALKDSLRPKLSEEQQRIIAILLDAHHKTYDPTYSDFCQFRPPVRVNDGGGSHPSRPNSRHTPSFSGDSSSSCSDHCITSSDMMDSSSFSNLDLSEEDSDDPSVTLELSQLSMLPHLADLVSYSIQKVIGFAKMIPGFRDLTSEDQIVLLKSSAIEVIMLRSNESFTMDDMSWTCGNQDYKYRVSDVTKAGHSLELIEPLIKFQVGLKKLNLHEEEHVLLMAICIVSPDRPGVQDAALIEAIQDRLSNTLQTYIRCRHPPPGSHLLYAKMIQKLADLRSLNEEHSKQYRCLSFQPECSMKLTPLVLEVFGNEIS
# Sequence of UniProt P10635 (P10635 whole entry, looked up): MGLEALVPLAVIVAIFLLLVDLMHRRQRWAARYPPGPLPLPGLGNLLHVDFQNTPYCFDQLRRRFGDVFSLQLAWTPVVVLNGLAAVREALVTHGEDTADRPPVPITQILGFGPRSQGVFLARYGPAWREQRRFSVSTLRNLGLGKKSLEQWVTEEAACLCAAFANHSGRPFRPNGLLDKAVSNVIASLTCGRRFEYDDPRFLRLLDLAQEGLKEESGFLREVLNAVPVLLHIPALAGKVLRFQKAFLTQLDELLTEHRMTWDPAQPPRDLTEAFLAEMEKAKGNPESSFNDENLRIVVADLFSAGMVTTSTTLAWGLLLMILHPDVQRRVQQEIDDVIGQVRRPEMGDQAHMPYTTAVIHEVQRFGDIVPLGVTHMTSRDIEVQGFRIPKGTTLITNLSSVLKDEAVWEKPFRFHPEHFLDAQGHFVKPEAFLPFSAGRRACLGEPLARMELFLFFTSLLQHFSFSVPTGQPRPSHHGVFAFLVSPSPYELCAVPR
compound,measurement,setting,value
FC(F)(F)c1ccc(Cl)cc1Cl,Potency,[1],inactive
same,"ratio activity, negative = MMP loss",[2],inconclusive: -4.51%
same,Potency,[3],"inconclusive: 19.2 µM [rising, partial curve, poor fit]"
same,Potency,[4],"inconclusive: 0.217 µM [rising, partial curve]"
same,Potency,[5],inactive
same,activation,[6],active: 0.481%
same,Potency,[7],"inconclusive: 70.3 µM [inhibitor, single point]"
CCn1cc(C(=O)O)c(=O)c2cnc(N3CCNCC3)nc21,Potency,[5],inactive
same,Potency,[6],inconclusive: 33.5 µM [activator]
same,Potency,[8],inactive
same,Potency,[9],inactive
same,Potency,[10],inactive
CCNC(=O)/C=C/c1cccc(Br)c1,Potency,[2],"inconclusive: 23.7 µM [rising, partial curve, poor fit]"
same,"activity change, negative = inhibition",[11],inconclusive: 7.47%
same,Potency,[4],inactive
same,Potency,[6],active: 15 µM
same,Potency,[12],inactive
same,Potency,[13],inactive
same,Potency,[7],inactive
NNC(=O)CCCCC(=O)NN,"ratio activity, negative = MMP loss",[2],inconclusive: 22.6%
same,Potency,[14],"inconclusive: 2.43 µM [rising, partial curve]"
same,Potency,[3],inactive
same,Potency,[4],inactive
same,Potency,[6],inactive
same,Potency,[15],"inconclusive: 63.3 µM [inhibitor, partial curve]"
same,Potency,[7],"inconclusive: 79.6 µM [inhibitor, single point]"
same,Potency,[10],"inconclusive: 44.8 µM [inhibitor, partial curve, poor fit]"
same,Potency,[16],active: 31.7 µM
N[C@@H]1CONC1=O,"activity change, negative = inhibition",[11],inconclusive: 52.1%
same,Potency,[5],inactive
same,Potency,[17],inactive
same,Potency,[6],inactive
same,Potency,[8],inactive
same,Potency,[9],inactive
same,Potency,[16],inactive
C=CC(OCC)OCC,"ratio activity, negative = MMP loss",[2],inconclusive: 19%
same,"activity change, negative = inhibition",[11],inconclusive: -25.7%
same,"ratio activity, negative = inhibition",[4],inconclusive: -6.54%
same,Potency,[6],"inconclusive: 30.3 µM [activator, partial curve]"
same,Potency,[12],"inconclusive: 76 µM [inhibitor, partial curve, poor fit]"
same,Potency,[7],inactive
same,Potency,[10],inactive
CC(CC=O)CC(C)(C)C (centres undefined),Potency,[2],inactive
same,Potency,[3],inactive
same,Potency,[4],inactive
same,activation,[5],inconclusive: -23.9%
same,Potency,[6],"inconclusive: 77 µM [activator, partial curve, poor fit]"
same,Potency,[10],"inconclusive: 63.3 µM [inhibitor, partial curve]"
same,Potency,[16],inactive
